PubChem BioAssay AID1508623 (National Center for Advancing Translational Sciences (NCATS), 2021)
Among all 48,000 compounds or so, about 450 (0.94%) were called active. Not shown: some 19% with an inconclusive outcome. Calls come from the whole dose curve; as a rule, active = well fitted inhibition curve with a large enough effect; inconclusive = small, poorly fitted or top-dose-only effect; inactive = no such curve, though single readings can be large or run the other way. The list shows a part of the results.

assay: Primary qHTS for Identification of Small Molecule Inhibitors of Huntingtin Promoter Activity; conditions: HEK293 HTT promoter firefly luciferase reporter (activity 0% = vehicle and -100% = no light), 24 h; series mostly up to 57.5 µM; activity change, negative = inhibition: at the top concentration; note: nearly all actives have a fitted effect of over 50% in size
Outline: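 Firefly luciferase signal from promoter-reporter HEK293 cells was scaled between vehicle (0%) and zero RLU (-100%). Compounds were tested at final concentrations of up to 57.5 uM over 24 h at 37 degrees C. PTC124 at 50 uM final served as control inhibitor.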

Activity change, negative = inhibition, inactive:
CCN1CCN(CCCNC(=O)c2cnn(-c3ccc(OC)cc3)c2C2CCN(C(=O)OC(C)(C)C)CC2)CC1 0.273%, COc1ccc(Cl)cc1C(=O)NCCc1ccc(S(=O)(=O)NC(=O)NC2CCCCC2)cc1 -12.3%, COC(=O)c1ccc(C(=O)OC)c(NC(=O)c2cnn3c(C(F)F)cc(-c4ccc(C)cc4)nc23)c1 -11%, CCOC(=O)c1ccc(Nc2nc3ccccc3n3c(C)nnc23)cc1 3.44%, CCOCCc1nn2c(=O)cc(COC(=O)c3ccccc3NC(=O)CC(C)C)nc2s1 -8.43%, COc1ccc(N(C)S(=O)(=O)c2ccc3c(c2)n(C)c(=O)c(=O)n3C)cc1 5.91%, O=C(Cn1c(-c2cccs2)cc2cc(F)ccc21)N1CCCCC1 -18.9%, COC(=O)c1scc(-c2ccc(C)cc2)c1S(=O)(=O)N1CCN(c2ccccc2F)CC1 -30.7%, COc1ccc(CNC(=O)Cn2ncc3c(=O)oc4ccc(C)cc4c32)c(OC)c1 2.53%, Cc1cc(=O)n2[nH]c(NC(=O)c3cccc(Cl)c3)nc2n1 -0.646%, CC1=Nc2cc(C(=O)N3CCCCC3)ccc2Sc2ccc(C)cc21 -11.7%, Cc1c(C(=O)NCc2ccc(OC(C)C)cc2)sc2ncnc(N(C)C3CCCCC3)c12 -27.1%, COc1ccccc1CCNC(=O)CCCn1c(=O)c2cccn2c2cccnc21 -9.76%, COc1ccc(-c2nc(CN3CCC(C(=O)NCc4ccc(F)cc4)CC3)c(C)o2)cc1OC -0.764%, CCCC(=O)Nc1nnc(SCc2cc(=O)n3cccc(C)c3n2)s1 -7.59%, CCCN(CCC)CCNC(=O)c1nn(C)c2c1CS(=O)(=O)c1ccccc1-2 6.29%, CCOC(=O)c1c(NC(=O)/C=C/c2ccc(Cl)cc2)sc2c1CCC(C)C2 (configuration not stated) -6.1%, COc1ccc(CCC(=O)NC2CC(=O)N(c3ccccc3)C2)cc1 (configuration not stated) -13.9%, Cc1ccccc1C(=O)n1nc(-c2ccco2)nc1NCc1cccs1 -4.76%, Cc1ccc2[nH]c(CSc3nnc(NC(=O)COc4ccc(F)cc4)s3)cc(=O)c2c1 -6.18%, COc1cc(Cl)c(C)cc1NC(=O)c1nn(C)c2c1CSc1ccccc1-2 -7.59%, O=C(CCCCn1c(=O)c2ccccc2n(Cc2cccc(Cl)c2)c1=O)NCc1ccc2c(c1)OCO2 -7.22%, COc1ccc(CNC(=O)c2cc(-c3ccc(Cl)cc3)n[nH]2)cc1 2.69%, O=C(NCc1nc(-c2ccccc2)no1)c1ccco1 11.9%, CCn1cc(C(=O)NCCc2ccccc2)c(=O)c2cc(S(=O)(=O)N3CCc4ccccc4C3)ccc21 -11.3%, CCCN(CCC)CCCNC(=O)c1cn(C)c2ccc(S(=O)(=O)N3CCOCC3)cc2c1=O -1.02%, CCCn1c2ccccc2c2cnn(CC(=O)NCCCN(Cc3ccccc3)C(C)C)c(=O)c21 -8.8%, COc1ccc(-c2cc(C)no2)cc1S(=O)(=O)N1CCOc2ccc(Cl)cc21 -23.8%, COc1ccc(Nc2cc(C(=O)NCCCN(C)C3CCCCC3)c3ccccc3n2)c(OC)c1 -24.6%, COC(=O)c1ccc2c(=O)n(CCCCCC(=O)NCc3ccc(OC)cc3)c(=O)[nH]c2c1 -17.1%, CC(C)c1ccc(NC(=O)CN2C(=O)COc3ccc(S(=O)(=O)N4CCOCC4)cc32)cc1 -1.18%, CCC(C)NC(=O)CN1C(=O)c2cccnc2Oc2ccc(C)cc21 (configuration not stated) 9.92%, COc1ccc(CCNc2nc(SCc3cccc(F)c3)nc3ccccc23)cc1OC -3.32%, COc1ccc(NC(=O)C2CCCN(S(=O)(=O)c3c(C)[nH]c(=O)[nH]c3=O)C2)cc1Cl (configuration not stated) 1.2%, CCc1cc2c(cc3c(=O)n(CC(=O)NCCc4ccccc4)ncn32)s1 -0.138%, Cc1ccc(C)c(NC(=O)c2ccc3c(c2)CCN3S(=O)(=O)c2ccccc2)c1 -30%, CCC(Sc1nc2ncccc2o1)C(=O)Nc1cccc(C)c1 (configuration not stated) 24%, COc1ccc2oc(=O)c(-c3nc(-c4ccc(C)c(C)c4)cs3)cc2c1 -0.351%, CCc1ccc(C2c3c(-c4ccccc4)n[nH]c3C(=O)N2c2ccc(C(=O)O)cc2)cc1 (configuration not stated) -15.7%, COc1cccc(-n2cc(C(=O)NCc3ccc(C)cc3)c3ccccc3c2=O)c1 -18.2%, O=C(CN1N=C(c2ccccc2)CCC1=O)NCc1ccc(F)cc1Cl -6.93%, COc1ccc(CCNC(=O)Cn2cc(S(=O)(=O)Cc3ccccc3Cl)c3ccccc32)cc1OC -8.61%, O=C(CSc1nnc(-c2ccccc2F)o1)Nc1ccccc1Cl 42.5%, CCSc1nnc2c(n1)OC(c1ccc(C)s1)Nc1ccccc1-2 (configuration not stated) 18.1%, COc1ccc(-c2cc(OC(=O)c3cccc(Cl)c3)c3c(C)oc(C)c3c(=O)c2)cc1 29.5%, CCOc1ccc(NC(=O)Cn2nnc(C(=O)NCCc3ccccc3)c2N)cc1 -26.9%, COc1ccc(-c2noc(-c3ccc(NCC4CCCO4)c([N+](=O)[O-])c3)n2)cc1 (configuration not stated) -12%, CCc1nn(CC(=O)Nc2c(C)cccc2C)c(=O)c2cc3sccc3n12 0.907%, CCOC(=O)c1noc2ncn(CC(=O)Nc3cccc(Cl)c3)c(=O)c12 0.593%, COc1ccccc1NC(=O)CSc1oc(-c2ccccc2)nc1S(=O)(=O)c1ccc(C)cc1 -23.1%, Cc1ccc2nc(-c3cccnc3)c(Nc3ccc(C(C)C)cc3)n2c1 -24.8%, O=C(COc1ccc2ccccc2c1)NC1CC(=O)N(c2ccccc2)C1 (configuration not stated) -22.9%, O=C(c1ccc(F)cc1)n1nc(-c2cccnc2)nc1NCc1ccc(F)cc1 -29%, O=C(NCCc1ccc(Cl)cc1)C1COc2ccccc2C1 (configuration not stated) -2.03%, Cc1cn2c(=O)c(S(=O)(=O)N3CCN(c4cc(Cl)ccc4C)CC3)c(C)nc2s1 -7.19%, CCOC(=O)c1ccc(NC(=O)c2cn(-c3ccccc3)nc2-c2ccc(OC)c(OC)c2)cc1 -1.07%, O=C(Nc1cccc(-c2nc3cccnc3s2)c1)c1cccc(Br)c1 -25.1%, Cc1ccc(S(=O)(=O)c2nc(-c3cccs3)oc2SC(C)C)cc1 -24.6%, N#Cc1ccccc1NC(=O)C(=O)NCCc1csc(-c2ccc(F)cc2)n1 -14.5%, CCNC(=O)CC1C(=O)N(c2ccc(C)cc2)C(=O)N1CCC(C)C (configuration not stated) -17.3%, O=C(Cn1c(=O)oc2cc(S(=O)(=O)N3CCCC3)ccc21)Nc1ccc(F)cc1F -26.8%, CCCCOc1cccc(NC(=O)c2cccc(C(=O)Nc3cccc(OCCCC)c3)c2)c1 23.1%
